From publication PMC12820563
The list shows a part of the results. The list includes weakly bound sequences.

Biological target: T1, MBP-FoxP3dN (UniProt Q99JB6)
T1 sequence: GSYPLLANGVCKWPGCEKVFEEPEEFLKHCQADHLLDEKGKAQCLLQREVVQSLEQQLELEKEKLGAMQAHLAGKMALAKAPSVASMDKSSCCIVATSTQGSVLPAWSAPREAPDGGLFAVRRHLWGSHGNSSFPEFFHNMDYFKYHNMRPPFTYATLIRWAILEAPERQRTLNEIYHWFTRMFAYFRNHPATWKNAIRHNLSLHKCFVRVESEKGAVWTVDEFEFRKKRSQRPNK
Test: PD-seq (MBP pull-down with sequencing)
Settings: 20 mM Tris-HCl pH 7.5, 100 mM NaCl, 1.5 mM MgCl2, 0.4 uM protein, 0.1 uM dsDNA library, 30 min, room temperature, amylose pull-down; high values mean tight binding; double strand, one strand shown

Sequence | binding signal (RPM ratio (pull-down/input))
GATGATTGTTCTCCCAGCTGATGAATTAGCAATCTCGAGTAAACAAATTTTCCTAATCTTTCTGTTCAAGCGCCATCTAC | 1.48
GATGATTGTTCTCCCAGCTGATGAATTGGTACGGTCGAGTAAACAAATTTTCCTAATCTTTCTGTTCAAGCGCCATCTAC | 0.366
GATGATTGTTCTCCCAGCTGATGAATTGTTTCGGTCGAGTAAACAAATTTTCCTAATCTTTCTGTTCAAGCGCCATCTAC | 0.842
GATGATTGTTCTCCCAGCTGATGAATTGACGTAGTCGAGTAAACAAATTTTCCTAATCTTTCTGTTCAAGCGCCATCTAC | 0.381
GATGATTGTTCTCCCAGCTGATGAATTTTGCATTTCGAGTAAACAAATTTTCCTAATCTTTCTGTTCAAGCGCCATCTAC | 6.44
GATGATTGTTCTCCCAGCTGATGAATTTAATGACTCGAGTAAACAAATTTTCCTAATCTTTCTGTTCAAGCGCCATCTAC | 1.9
GATGATTGTTCTCCCAGCTGATGAATTGCGATCATCGAGTAAACAAATTTTCCTAATCTTTCTGTTCAAGCGCCATCTAC | 0.941
GATGATTGTTCTCCCAGCTGATGAATTTTCATGTTCGAGTAAACAAATTTTCCTAATCTTTCTGTTCAAGCGCCATCTAC | 0.51
GATGATTGTTCTCCCAGCTGATGAATTATTCAATTCGAGTAAACAAATTTTCCTAATCTTTCTGTTCAAGCGCCATCTAC | 0.399
GATGATTGTTCTCCCAGCTGATGAATTATAGAGTTCGAGTAAACAAATTTTCCTAATCTTTCTGTTCAAGCGCCATCTAC | 0.418
GATGATTGTTCTCCCAGCTGATGAATTTCCACTGTCGAGTAAACAAATTTTCCTAATCTTTCTGTTCAAGCGCCATCTAC | 0.273
GATGATTGTTCTCCCAGCTGATGAATTAAACGTGTCGAGTAAACAAATTTTCCTAATCTTTCTGTTCAAGCGCCATCTAC | 0.457
GATGATTGTTCTCCCAGCTGATGAATTGAATCCGTCGAGTAAACAAATTTTCCTAATCTTTCTGTTCAAGCGCCATCTAC | 0.293
GATGATTGTTCTCCCAGCTGATGAATTACTGAGGTCGAGTAAACAAATTTTCCTAATCTTTCTGTTCAAGCGCCATCTAC | 0.248
GATGATTGTTCTCCCAGCTGATGAATTCTGATAATCGAGTAAACAAATTTTCCTAATCTTTCTGTTCAAGCGCCATCTAC | 0.377
GATGATTGTTCTCCCAGCTGATGAATTCGAGGGGTCGAGTAAACAAATTTTCCTAATCTTTCTGTTCAAGCGCCATCTAC | 0.349

Sequence | binding signal (RPM ratio (pull-down/input))
GATGATTGTTCTCCCAGCTGATGAATTAGGTACGTCGAGTAAACAAATTTTCCTAATCTTTCTGTTCAAGCGCCATCTAC | 0.514
GATGATTGTTCTCCCAGCTGATGAATTGACCTATTCGAGTAAACAAATTTTCCTAATCTTTCTGTTCAAGCGCCATCTAC | 0.354
GATGATTGTTCTCCCAGCTGATGAATTGTCATTGTCGAGTAAACAAATTTTCCTAATCTTTCTGTTCAAGCGCCATCTAC | 1.19
GATGATTGTTCTCCCAGCTGATGAATTTCGCCGCTCGAGTAAACAAATTTTCCTAATCTTTCTGTTCAAGCGCCATCTAC | 2.15
GATGATTGTTCTCCCAGCTGATGAATTACGCTGGTCGAGTAAACAAATTTTCCTAATCTTTCTGTTCAAGCGCCATCTAC | 0.673
GATGATTGTTCTCCCAGCTGATGAATTGACCCCTTCGAGTAAACAAATTTTCCTAATCTTTCTGTTCAAGCGCCATCTAC | 0.322
GATGATTGTTCTCCCAGCTGATGAATTGAACTATTCGAGTAAACAAATTTTCCTAATCTTTCTGTTCAAGCGCCATCTAC | 0.352
GATGATTGTTCTCCCAGCTGATGAATTCACATTATCGAGTAAACAAATTTTCCTAATCTTTCTGTTCAAGCGCCATCTAC | 0.627
GATGATTGTTCTCCCAGCTGATGAATTGGATCGATCGAGTAAACAAATTTTCCTAATCTTTCTGTTCAAGCGCCATCTAC | 0.227
GATGATTGTTCTCCCAGCTGATGAATTGGTCCACTCGAGTAAACAAATTTTCCTAATCTTTCTGTTCAAGCGCCATCTAC | 0.387
GATGATTGTTCTCCCAGCTGATGAATTAGCATTCTCGAGTAAACAAATTTTCCTAATCTTTCTGTTCAAGCGCCATCTAC | 4.37
GATGATTGTTCTCCCAGCTGATGAATTAACCACCTCGAGTAAACAAATTTTCCTAATCTTTCTGTTCAAGCGCCATCTAC | 0.271
GATGATTGTTCTCCCAGCTGATGAATTTAATTATTCGAGTAAACAAATTTTCCTAATCTTTCTGTTCAAGCGCCATCTAC | 3.6
GATGATTGTTCTCCCAGCTGATGAATTCATTTTTTCGAGTAAACAAATTTTCCTAATCTTTCTGTTCAAGCGCCATCTAC | 0.983
GATGATTGTTCTCCCAGCTGATGAATTTGCAAACTCGAGTAAACAAATTTTCCTAATCTTTCTGTTCAAGCGCCATCTAC | 0.673
GATGATTGTTCTCCCAGCTGATGAATTAAATATTTCGAGTAAACAAATTTTCCTAATCTTTCTGTTCAAGCGCCATCTAC | 0.666
